B1: FLAG-tagged EIF4G2 WT [human] / EIF2S2 [human (endogenous in HEK293T)] (parent complex)
chain 1: MESAIAEGGASRFSASSGGGGSRGAPQHYPKTAGNSEFLGKTPGQNAQKWIPARSTRRDDNSAANNSANEKERHDAIFRKVRGILNKLTPEKFDKLCLELLNVGVESKLILKGVILLIVDKALEEPKYSSLYAQLCLRLAEDAPNFDGPAAEGQPGQKQSTTFRRLLISKLQDEFENRTRNVDVYDKRENPLLPEEEEQRAIAKIKMLGNIKFIGELGKLDLIHESILHKCIKTLLEKKKRVQLKDMGEDLECLCQIMRTVGPRLDHERAKSLMDQYFARMCSLMLSKELPARIRFLLQDTVELREHHWVPRKAFLDNGPKTINQIRQDAVKDLGVFIPAPMAQGMRSDFFLEGPFMPPRMKMDRDPLGGLADMFGQMPGSGIGTGPGVIQDRFSPTMGRHRSNQLFNGHGGHIMPPTQSQFGEMGGKFMKSQGLSQLYHNQSQGLLSQLQGQSKDMPPRFSKKGQLNADEISLRPAQSFLMNKNQVPKLQPQITMIPPSAQPPRTQTPPLGQTPQLGLKTNPPLIQEKPAKTSKKPPPSKEELLKLTETVVTEYLNSGNANEAVNGVREMRAPKHFLPEMLSKVIILSLDRSDEDKEKASSLISLLKQEGIATSDNFMQAFLNVLDQCPKLEVDIPLVKSYLAQFAARAIISELVSISELAQPLESGTHFPLFLLCLQQLAKLQDREWLTELFQQSKVNMQKMLPEIDQNKDRMLEILEGKGLSFLFPLLKLEKELLKQIKLDPSPQTIYKWIKDNISPKLHVDKGFVNILMTSFLQYISSEVNPPSDETDSSSAPSKEQLEQEKQLLLSFKPVMQKFLHDHVDLQVSALYALQVHCYNSNFPKGMLLRFFVHFYDMEIIEEEAFLAWKEDITQEFPGKGKALFQVNQWLTWLETAEEEESEEEAD
chain 2: not shown

Variants of B1 are the subject of the test. Nature of the test: co-immunoprecipitation followed by mass spectrometry; FLAG-tagged EIF4G2 transfected into HEK293T cells; corrected for EIF4G2 levels in IP; read off a plot.
As for chain 1 R178Q, the ratio to parent is around 1.5.

The record behind these values is publication PMC10746786 (2023).
